Test results: PubChem BioAssay AID463173 (ICCB-Longwood Screening Facility, Harvard Medical School, 2010)
The campaign covered roughly 52,000 compounds. About 4,300 (8.3%) were called active. Rule as the data show it: active = survival mostly below about 52% (no sharp cut-off); inactive = mostly above about 56%. The list shows a part of the results.

Tested on: DeltatarO mutant
Assay: growth inhibition of S. aureus wild type versus tarO mutant, primary screen, teichoic acid synthesis inhibitors, RN4220, OD600 (AID 463173)
Details: OD600, 18 h, stronger effect = lower value, screened at 18.75 µg/mL (by protocol)

Which survival does the source give for Cn1nc(C(=O)NCc2ccccc2Cl)c2c1-c1ccccc1S(=O)(=O)C2 here?
Its survival is inactive: 100%.

With Cc1cc(C)cc(NC(=O)CSc2oc(-c3ccco3)nc2S(=O)(=O)c2ccc(Cl)cc2)c1 as the compound, how does the survival read?
Its survival is inactive: 59%.

How did the survival turn out when COc1ccc(/C=C2\SC(=S)N(CCC(=O)NCCO)C2=O)cc1 was run?
The survival was inactive: 104%.

CCc1ccc(C(=O)N2CCC(c3nc(-c4ccc(S(=O)(=O)N5CCCC5)cc4)no3)CC2)cc1 was tested. Which survival did it give?
Its survival is inactive: 89%.

How did the survival turn out when O=S(=O)(c1ccc(Br)cc1)c1nnn2c1nc(NCc1ccc3c(c1)OCO3)c1sccc12 was run?
The survival was inactive: 81%.

How did the survival turn out when COc1cc(Cl)c(C)cc1NC(=O)Cn1ncc2c1-c1cc(C)ccc1OC2 was run?
The survival was inactive: 58%.

With CCCSc1ncc(Cl)c(C(=O)Nc2c(C(=O)Nc3ccc(OC)cc3)oc3ccccc23)n1 as the compound, how does the survival read?
Its survival is inactive: 68%.

CCCOc1ccc(CNC(=O)CCCn2nc(C)c3sc4ccccc4c3c2=O)cc1 was tested. Which survival did it give?
The survival was inactive: 101%.

For Cc1ccc(CNC(=O)CCCCCn2c(=O)c3sccc3n(CC(=O)Nc3c(C)cc(C)cc3C)c2=O)cc1, which survival is on record?
Its survival is inactive: 77%.

How did the survival turn out when COC(=O)/C=C1/N/C(=N/c2nc3cc(C)ccc3o2)NC1=O was run?
Its survival is inactive: 57%.

With CCc1ccccc1NC(=O)Cc1ccc(NC(=O)N2CCCCc3ccccc32)cc1 as the compound, how does the survival read?
Its survival is inactive: 94%.

How did the survival turn out when Cc1nc2nc(NC(=O)CC(C)C)[nH]n2c(=O)c1Cc1ccccc1 was run?
The survival was inactive: 113%.

How did the survival turn out when COc1ccc(C)cc1NC(=O)c1cc2c(=O)n(Cc3cccnc3)ccc2nc1C was run?
The survival was inactive: 107%.

Which survival does the source give for Cc1ccc(-c2c(C(=O)N3CCN(c4cc(Cl)ccc4C)CC3)oc(=O)c3ccccc23)cc1 here?
The survival was inactive: 94%.

CCS(=O)(=O)c1ncc(Cl)c(C(=O)Nc2c(C(=O)Nc3cccc(C)c3)oc3ccccc23)n1 was tested. Which survival did it give?
Its survival is inactive: 67%.

With COc1ccccc1N1CCN(C(CNC(=O)C(=O)NCc2ccc(F)cc2)c2cccnc2)CC1 (centres undefined) as the compound, how does the survival read?
Its survival is inactive: 104%.

Which survival does the source give for O=C(Nc1ccc(F)c(Cl)c1)N1CCC2(CC1)Oc1ccccc1C(=O)N2Cc1ccccc1F here?
Its survival is inactive: 55%.

Which survival does the source give for Nc1ccc(C(=O)N(CCO)CCO)cc1 here?
The survival was inactive: 54%.

With Cc1ccc(-n2c(SCC(=O)NC(C)(C)C)nc(O)cc2=O)cc1 as the compound, how does the survival read?
The survival was inactive: 107%.

With Cc1cc(C)c(S(=O)(=O)N2CCC(N3CCN(Cc4ccccc4)C(=O)C3=O)CC2)c(C)c1 as the compound, how does the survival read?
Its survival is inactive: 68%.

Which survival does the source give for CCN(CC)S(=O)(=O)c1cccc(C(=O)Nc2sc3c(c2C#N)CCC(C)C3)c1 (centres undefined) here?
The survival was inactive: 121%.

With COc1ccc2c(c1)c1c(c(=O)n(-c3ccccc3C)c(=O)n1C)n2C as the compound, how does the survival read?
Its survival is inactive: 81%.

With COc1ccc(Cc2nnc(NC(=O)c3cccs3)s2)cc1OC as the compound, how does the survival read?
The survival was inactive: 100%.

How did the survival turn out when COc1ccc(Nc2cc(C)c3cc(NC(=O)Cc4ccc(Cl)cc4)ccc3n2)cc1 was run?
The survival was inactive: 103%.

Cc1ccc(Cl)cc1N1CCN(c2ncnc3c2nc2n3CCCCC2)CC1 was tested. Which survival did it give?
The survival was inactive: 96%.

How did the survival turn out when COc1ccc(-n2ncc(C(=O)N3CCN(c4cc(C)ccc4C)CC3)c2C2CCN(C(=O)OC(C)(C)C)CC2)cc1 was run?
Its survival is inactive: 80%.

COc1ccc(CNCc2c(C(=O)O)c(C)n(Cc3ccccc3C)c2C)c(OC)c1 was tested. Which survival did it give?
The survival was inactive: 122%.

How did the survival turn out when CCN(CC)CCNC(=O)c1cn(CCOC)c(=O)c2c1c1ccccc1n2C was run?
Its survival is inactive: 82%.

How did the survival turn out when O=C(CSc1cn(CCNC(=O)c2c(F)cccc2F)c2ccccc12)Nc1ccc(F)cc1 was run?
The survival was inactive: 128%.

How did the survival turn out when Cc1nnc(NC(=O)CSc2nccn2Cc2ccc(Cl)cc2)s1 was run?
The survival was inactive: 112%.

How did the survival turn out when COc1ccc(Cc2nc3c4cnn(-c5ccccc5F)c4ncn3n2)cc1 was run?
Its survival is inactive: 81%.

With COc1ccc(Cl)cc1N(C)C(=O)c1cc2c(=O)oc3ccc(C)cc3c2s1 as the compound, how does the survival read?
The survival was inactive: 68%.

With O=C(/C=C/c1ccccc1)NC(O)C(=O)c1ccccc1 (centres undefined) as the compound, how does the survival read?
Its survival is inactive: 83%.

CCCCNC(=O)c1cc(-c2ccc(OC)cc2)nc2n[nH]c(-c3cccc([N+](=O)[O-])c3)c12 was tested. Which survival did it give?
Its survival is inactive: 67%.

For CCc1ccccc1NC(=O)CN1CCCN(Cc2cc(C)ccc2C)S1(=O)=O, which survival is on record?
Its survival is inactive: 94%.

With CCc1ccc(NC(=O)CCNS(=O)(=O)c2ccc3c(c2)oc(=O)n3C)cc1 as the compound, how does the survival read?
Its survival is inactive: 89%.

Which survival does the source give for Cc1ccc(C)c(NC(=O)Cn2cc(C(=O)c3cccs3)c3ccccc32)c1 here?
Its survival is inactive: 121%.

How did the survival turn out when CC(C)Oc1ccc(C(=O)NCC(c2ccc(N(C)C)cc2)N2CCCC2)cc1 (centres undefined) was run?
Its survival is inactive: 60%.

With CCOc1ccccc1NC(=O)CCNS(=O)(=O)c1cccc2nonc12 as the compound, how does the survival read?
The survival was active: 45%.

Which survival does the source give for CCOc1ccccc1NC(=O)C1CCCN1S(=O)(=O)c1ccc2c(c1)C(C)(C)C(=O)N2C (centres undefined) here?
Its survival is inactive: 50%.

With COc1cc(C(=O)Nc2ccc3c(c2)N(C2CCCC2)C(=O)c2ccccc2S3)cc(OC)c1OC as the compound, how does the survival read?
Its survival is inactive: 72%.

COc1ccc(NC(=O)N2CCOc3ccc(Cl)cc32)cc1 was tested. Which survival did it give?
The survival was active: 44%.

With Nc1c(C(=O)Nc2ccccc2F)sc2nc3c(cc12)CCCCCC3 as the compound, how does the survival read?
The survival was inactive: 61%.

With Cc1ccc(NS(=O)(=O)c2cc(-c3cnc(C4CC4)o3)ccc2C)cc1Cl as the compound, how does the survival read?
Its survival is inactive: 129%.

For Cc1cc(NC(=O)c2ccc3c(c2)OCCO3)cc(-c2nc3ccccc3o2)c1O, which survival is on record?
Its survival is inactive: 63%.

With CCC(C(=O)NCc1ccc(OC)c(OC)c1)n1nc(C)c2c(C)n(-c3ccc(C)cc3)nc2c1=O (centres undefined) as the compound, how does the survival read?
The survival was inactive: 78%.

Which survival does the source give for Cc1ccc(C(=O)COC(=O)c2cccc(NC(=O)c3ccc(Cl)cc3Cl)c2)cc1 here?
The survival was inactive: 61%.

Cc1ccc(NC(=O)C2CCN(S(=O)(=O)c3c(C)noc3/C=C/c3cccs3)CC2)cc1F was tested. Which survival did it give?
Its survival is inactive: 64%.

With COc1ccc(NC(=O)CCc2nc3c(C)nn(-c4ccc(C)cc4)c3n(C)c2=O)cc1 as the compound, how does the survival read?
The survival was inactive: 82%.

How did the survival turn out when Cc1cccc(N(CC(=O)NCCSCc2cccc(Cl)c2)S(=O)(=O)c2ccccc2)c1C was run?
The survival was inactive: 57%.

Which survival does the source give for CCCS(=O)(=O)c1c(S(=O)(=O)CCC)c2cc(CC)ccn2c1C(=O)c1ccc(Cl)cc1 here?
The survival was inactive: 75%.

With O=C(CN1C(=O)COc2ccccc21)N(Cc1ccccc1)Cc1ccccn1 as the compound, how does the survival read?
Its survival is inactive: 91%.

How did the survival turn out when COc1ccc(C2NC(=O)N(C)C3=C2C(=O)N(c2cccc(C(=O)O)c2)C3)cc1 (centres undefined) was run?
Its survival is inactive: 84%.

COc1ccc(Cl)cc1CNCCSc1nnnn1-c1ccccc1 was tested. Which survival did it give?
Its survival is inactive: 50%.

With CCN(CC)CCCNC(=O)c1nn(C)c2c1CSc1ccccc1-2 as the compound, how does the survival read?
Its survival is inactive: 87%.

For COc1ccccc1-c1cc(C(=O)Nc2cc(OC)c(OC)c(OC)c2)no1, which survival is on record?
Its survival is active: 25%.

With Cc1ccc(C)c(-n2c(SCC(=O)NCC(C)C)nnc2-c2cccnc2)c1 as the compound, how does the survival read?
Its survival is inactive: 107%.

For COc1cc(Cc2ccc(N)c(OC)c2)ccc1N, which survival is on record?
The survival was inactive: 101%.

For Cc1ccc(CNC(=O)c2ccc3c(c2)nc2n3CCOC2)cc1, which survival is on record?
Its survival is inactive: 72%.

Cc1ccc(-n2nc(C)c3c(C(=O)NCCc4ccccc4)cc(C)nc32)cc1 was tested. Which survival did it give?
The survival was inactive: 70%.

Which survival does the source give for COc1ccc(C(C)=O)cc1CSc1nc(NCCc2ccccc2)c2ccccc2n1 here?
Its survival is inactive: 60%.

For COc1ccc(C(=O)NNc2ncnc3c2cnn3-c2cccc(Cl)c2)cc1OC, which survival is on record?
Its survival is inactive: 98%.

COc1ccc(C(=O)c2sc3nc(-c4ccc(F)cc4)ccc3c2N)cc1 was tested. Which survival did it give?
Its survival is inactive: 81%.

How did the survival turn out when COc1ccc(-c2nc(Cn3c(SCc4cccc(C(F)(F)F)c4)nc4cccnc43)c(C)o2)cc1OC was run?
The survival was inactive: 93%.

For CC1=C(C(=O)Nc2ccc(C)cc2C)C(c2ccc(O)cc2)n2nc(SCC(=O)c3ccc(C)cc3)nc2N1 (centres undefined), which survival is on record?
Its survival is inactive: 125%.

With Cn1c(Nc2ccc(Cl)cc2)cc(=O)n(C)c1=O as the compound, how does the survival read?
Its survival is inactive: 93%.

How did the survival turn out when COc1ccc(-c2nn3c(=O)cc(CN4CCN(S(=O)(=O)c5ccc(C)cc5)CC4)nc3s2)cc1 was run?
Its survival is inactive: 94%.

CC(O)CN(N)C1=NS(=O)(=O)c2ccccc21 (centres undefined) was tested. Which survival did it give?
Its survival is inactive: 108%.

How did the survival turn out when COc1ccc(OC)c(CNC(=O)C2CCCCN2S(=O)(=O)c2ccc(F)cc2)c1 (centres undefined) was run?
The survival was inactive: 58%.

With COc1ccc(C(=O)Nc2ccc(S(=O)(=O)N(Cc3ccccc3)c3ccccc3)cc2)cc1 as the compound, how does the survival read?
Its survival is inactive: 75%.

How did the survival turn out when Cc1cc(OCC(O)CN2CCN(c3cccc(Cl)c3)CC2)ccc1Cl (centres undefined) was run?
Its survival is active: -1%.

COc1ccc(S(=O)(=O)Nc2cc3c(C(=O)OC(C)C)c(C)oc3c3ccccc23)cc1 was tested. Which survival did it give?
The survival was active: 38%.

Which survival does the source give for COc1ccc(CNC(=O)CN2C(=O)CCn3nc(-c4ccccc4)cc32)c(OC)c1 here?
Its survival is inactive: 69%.

CC(CCc1ccccc1)NC(=O)CSc1n[nH]c(-c2ccc(F)cc2)n1 (centres undefined) was tested. Which survival did it give?
Its survival is inactive: 126%.

For COc1ccc(N2C(=O)Cc3cc(OC)c(OC)cc3C2c2ccc(F)cc2)cc1 (centres undefined), which survival is on record?
The survival was inactive: 72%.

Which survival does the source give for CC12CC(C(C#N)=C(N)N1)c1ccccc1O2 (centres undefined) here?
Its survival is inactive: 100%.

With Cc1cccc(Cn2cc(C(=O)Nc3cc(F)ccc3F)ccc2=O)c1 as the compound, how does the survival read?
The survival was inactive: 74%.

With CCN(CC)C(=O)Cn1cnc2ccccc2c1=O as the compound, how does the survival read?
Its survival is inactive: 99%.

Which survival does the source give for COc1ccc(-c2ccc(CCC(=O)O)n2-c2ccccc2O)cc1 here?
The survival was inactive: 124%.

With CCc1ccccc1NC(=O)N1CC(C)Sc2ccccc21 (centres undefined) as the compound, how does the survival read?
The survival was inactive: 77%.

For COc1ccccc1NC(=O)CN1C(=O)c2ccccc2Sc2ccc(C(=O)N3CCCC3)cc21, which survival is on record?
The survival was inactive: 64%.

How did the survival turn out when O=C(c1cc2ccccc2oc1=O)N1CCSC1c1ccco1 (centres undefined) was run?
The survival was inactive: 63%.

How did the survival turn out when CC(=O)c1ccc(NC(=O)c2nc(-c3ccccc3)n(-c3ccccc3)n2)cc1 was run?
The survival was inactive: 87%.

With O=C(Nc1ccc(Br)cc1F)N1CC=C(c2c[nH]c3ccccc23)CC1 as the compound, how does the survival read?
Its survival is inactive: 82%.

CC(C)CC(OC(=O)c1cccs1)C(=O)NCc1cccs1 (centres undefined) was tested. Which survival did it give?
Its survival is inactive: 81%.

CCCc1nn2c(=O)cc(COC(=O)c3ccc(NC(=O)C4CCCCC4)cc3)nc2s1 was tested. Which survival did it give?
The survival was inactive: 75%.

For CCc1nnc2c(Nc3ccc(N(CC)CC)cc3C)nc3ccccc3n12, which survival is on record?
The survival was inactive: 109%.

O=C(CSc1ncn[nH]1)N1CCCCC1 was tested. Which survival did it give?
The survival was inactive: 74%.

Cc1cc(S(=O)(=O)Nc2ccc(C(=O)O)cc2)c(C)c(S(=O)(=O)c2ccc(Cl)cc2)c1 was tested. Which survival did it give?
Its survival is inactive: 76%.
